These results are taken from paper PMC10726135.

This is one part of the list. At the low end of the ranking the order means little. Measured with an extract: partners may take part in the binding.

The target in the experiment is T1, HNF4alpha2 (COS-7 nuclear extract) (UniProt P41235).
T1 sequence: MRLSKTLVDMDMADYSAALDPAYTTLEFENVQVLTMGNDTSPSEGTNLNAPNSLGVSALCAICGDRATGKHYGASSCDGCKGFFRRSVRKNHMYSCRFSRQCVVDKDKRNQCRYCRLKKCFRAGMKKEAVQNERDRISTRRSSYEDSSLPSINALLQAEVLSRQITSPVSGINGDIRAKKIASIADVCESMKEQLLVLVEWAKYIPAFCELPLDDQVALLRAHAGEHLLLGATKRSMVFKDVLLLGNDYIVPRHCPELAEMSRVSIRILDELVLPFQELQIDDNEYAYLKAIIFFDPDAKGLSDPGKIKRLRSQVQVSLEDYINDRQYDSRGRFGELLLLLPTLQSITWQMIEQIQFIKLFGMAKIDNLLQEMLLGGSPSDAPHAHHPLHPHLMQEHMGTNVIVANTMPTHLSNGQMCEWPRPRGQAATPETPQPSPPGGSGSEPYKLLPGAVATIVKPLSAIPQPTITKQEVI
The experiment can be described thus: protein-binding microarray. Conditions: COS-7 nuclear extract on double-stranded Agilent 4x180k PBM; binding buffer, salt, pH and temperature not given; high values mean tight binding; double strand, one strand shown; sequences stand for … in …GCCTAGGGAGATTAGAGTATCGGTCGA
As to AGGGATTTCAGTGCCCTCATAAGAGACTTT, the binding signal (log2 normalized intensity) was determined as 1.84.
Next, CAGCCCAGTGGTAATGGAGCTGAAACTATA: -1.02.
Take GCTCTTTACCCCTGCAAGGATTGATCAGCA: the binding signal (log2 normalized intensity) was 1.64.
As for CAAACAAGAAAGTTGAGGTGAATACACAGC, the figure is -1.05; as for CTTTATGACTTGGGTGCACCAATGATCAAA, 1.3.
As to AAGGAAGGAGGGAGGCAGGGAGACAACCTG, the binding signal (log2 normalized intensity) was -1.04.
For CTTCATTCCCGAGTGCCTTTAGAGGGCAAG, the binding signal (log2 normalized intensity) was 2.12.
As for CTGGAAAGGGCTTCAGAGTCGATAGTCCAA, the figure is 1.18; as for CATCAGATACCTACTCTGCTCTTCTCTCTG, -0.613.
For AATTGTTCAACATGGTGACTCTAGTCAATG, the binding signal (log2 normalized intensity) was 1.32.
As to TAGTGCCTGGATCTTGGAACAGGTCTCAGG, the binding signal (log2 normalized intensity) is -0.0841.
As for GTGGACTTTGCCTGCCCATCCCGTGGACTC, the figure is 3.88; as for CCCACCTTGTTATCTTGTCTCTTCTTGTAC, 1.98.
Next, AATGCAGCCTTATCTTCCAGCCCTGTCTCT: -0.713; ATCCCCGCTCCCCTCCCCCACCCGCGGTCC: 6.38.
As for CTCGGGGCCAGGTGGGCTGCTCCCAGTGCC, the figure is -1.04.
Consider GATCAGGCAAGTGGTCATGTAGGTGTCTCA, for which the binding signal (log2 normalized intensity) was determined as 0.912.
As for GAAGGTTATTAGTGATAAGCAGAGGATGGG, the figure is 0.397.
Next, AACTGAGTTACGTAATGTGTCCCCACATCT: 2.27; CCTGGTGGACCCAGCTGGTAAGTGCAAGGC: 0.0281.
Next, AGAGAAGGGCTGAAGGTTAATTCGCTCATC: 0.389.
Turning to CAGGACTGCGTAACTTACAGTGCACTTTGA, the binding signal (log2 normalized intensity) stood at 4.9.
As to TATCGCCCTTCTGTCAAGTCCAAAGTTCTT, the binding signal (log2 normalized intensity) came to 4.55.
As for CCTATCAGCTACTCATGCTTTCTTATCTGG, the figure is 1.17; as for GACCGAGGGTTAAGCTCATGCTTTCATCTC, -1.12; as for ATTTAGTAAGTTCAAGAAGACCTTTGCTCC, 5.89.
As for ACCCATCCCTTTGCAATAAAAGATTGCATC, the figure is 0.385.
Next, TGAAGTAAATGCAGTTTGTCAAGTGCCCGG: 1.19; ACTCTGACCCAGGAGCCTTCCGGAGGCTCT: -1.08; CAAAGTTATCAAGTTGCTTAAATTCTTGTA: 0.487.
AAAAAATTCAAAGCAGAGGTGACCCTTGCA: the binding signal (log2 normalized intensity) turned out to be 3.06.
For the sequence CCACTCTGCCTTCAGCGGTGCATTTTTTTC, the binding signal (log2 normalized intensity) was determined as 1.12.
Next, AGGGTATAGGATAAGGAATGAAGCAGAACC: -1.02; GCTGCTACTTTAGCTGCCAGAGGTTCTTTC: 0.494; AACTGGAGTAAAGGTCACTCTTGCTATGCA: 2.79.
Next, CTTTCATCTTTGCGGTGAGCATTTGTTTAG: 1.46.
Next, CTGGCTGACCTTTAGCCTGGCCATTTCTCA: 4.34.
Consider AACATCAGGGTGCCAGCAGGTGGTCAGCCT, for which the binding signal (log2 normalized intensity) was -1.24.
GGGTTACAGGTGGACAAACAGGCTGAACAT: the binding signal (log2 normalized intensity) was -0.854.
Next, GAAGACCAACAGGTGAAGACATGCTGGTGT: -0.696; GATAAGCAGAAGGTCAGGTGAATCAACGAT: -0.985.
Next, AGGGCCCGAGGCCTTGAGCATACAAAACCC: -1.18.
As to GTGTCAACATGGACTTTGTTGTTTGCCTCT, the binding signal (log2 normalized intensity) was found to be 3.48.
As for TGATGCATCCTGAGGCAAAATTCCTCGCTA, the figure is -1.15.
As for GAAGTTGCCCGAGCTGCCCTTTATCTCCTC, the figure is 1.88; as for GTTGCTTCAAAGGGCAAAAGGGCAAAACTG, 3.92; as for GCTGGCGGGAGCATAGCAGCGAGGACAACC, -1.3.
Next, CCTGTTTAAAGAATTTTTCCCCTAGTTACA: 1.72; CCAGATGTTACCACCCAGACCAGTAACCTA: -1.1; TGGACTTTGCACTAAAAGCCATGAGAAGGT: 4.84.
ACTGACCCAGGGAGAAAGGTCAGGGGCAGG: the binding signal (log2 normalized intensity) amounted to 1.02.
Next, TATGGGTTAACAGAATGAACAGCTCTTCTT: 0.252; GGTCAAAGGGTAAAGATTATGAACTAATTT: 1.41; TAAGTCACTGGGCTGATGACCTTTGACTGA: 7.08.
As for TAGAGTCAATACTCCACAAGACCACAAGGT, the figure is -1.01; as for TGCCTTGTGTACTCTATCCAGTAGAGGGCA, 2.17.
As for ATTGGGTACAATGTTCACTATTTGAACTTA, the figure is 3.35; as for GTTTCCTGAGTTACAGATAAGCAGAAGGTC, 1.1.
ACCTGGACTTGAAGCCAGACTCTGCCATTT: the binding signal (log2 normalized intensity) is -1.1.
Take AAACAACCCAGAGAATGCTAGACAAGGGAA: the binding signal (log2 normalized intensity) is -1.28.
As for AGGTCAATGAAGCTCTTGCTGGTCAAGCTA, the figure is -1.15; as for AAACTGTATTGCTCAATGTCAAACACACTG, -1.06.
With TGCCCCTTCACATATTTTGAAAGAAAGAGA, the binding signal (log2 normalized intensity) was 1.68.
Consider TTCCCCTCCCTTCCACCTTTGCCCTCCAAA, for which the binding signal (log2 normalized intensity) was found to be 5.76.
As for ATCTGGATTTTCAGGTTCCCCAGTGAGGAT, the figure is 1.69; as for CACAACTGGATGGTGTTTGATCTGATGTAC, 1.7.
As for GGCAGGGGAGAACTTCCTCCTCCTTGGCTC, the figure is -1.13; as for CATTCTCTAATCAGGTCGCTGCCTGCCCCT, 2.85.
Next, TGCGCTGGCCTTGCTTTTCACAGTCGATCT: -1.14.
As to GGCAAGCCGACTTACAGGACAAAAGTAAAT, the binding signal (log2 normalized intensity) is -1.15.
Next, GGGGCAGGTAAGTACCAATATTTGTTAAGT: 1.08.
Turning to TTCCTCCAGCCTGTCGGAATTTGCCCTGTG, the binding signal (log2 normalized intensity) is 4.24.
